# Reference: PubChem BioAssay AID686978 (National Center for Advancing Translational Sciences (NCATS), 2013)
# In all, about 420,000 compounds went through this assay and about 64,000 (15%) were called active. The inconclusive results got no clear call from the source; some entries with a clear call stand among them for comparison. The call rests on the fitted dose curve; in most records, active means well fitted inhibition curve with a large enough effect; inconclusive means small, poorly fitted or top-dose-only effect; inactive means flat fitted curve, though single readings scatter. Potencies of inconclusive entries are left out as doubtful fits.
# Experiment: qHTS for Inhibitors of human tyrosyl-DNA phosphodiesterase 1 (TDP1): qHTS in cells in absence of CPT; further: nearly all actives have a fitted effect of over 55% in size
# Settings: DT40 Tdp1-/- hTDP1 cells, no CPT, ATP luminescence, 48 h; activity change, negative = growth inhibition: at 46.2 µM (top of the series) unless noted
# How it was run: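 Cells were dispensed at 400 per well, compounds added by pin tool, plates incubated ≥48 hr at 37 °C, then CellTiter-Glo added for 30 min at room temperature before luminescence reading. Line: DT40 Tdp1-/- complemented with hTDP1; camptothecin omitted.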
# On the % scale 0 is the no-effect control and ±100 the full control effect; potency means the concentration at half of the fitted maximal effect; tags describe the fitted curve by direction and shape.
SMILES,Potency,"activity change, negative = growth inhibition"
O=C(NCCCN1CCOCC1)c1ccc(NS(=O)(=O)c2ccccc2)cc1,inactive,
COc1ccc(S(=O)(=O)N2CCCCCC2)cc1NC(=O)CCNC(=O)c1ccc(Cl)cc1,"inconclusive [inhibitor, single point]",
Cc1ccc(NC(=O)C2CCCN(S(=O)(=O)c3c(C)noc3C)C2)cc1 (configuration not stated),"inconclusive [inhibitor, single point]",
C=CC(=O)Oc1ccc(N2Cc3ccccc3C2=O)cc1,active: 4.61 µM,
Oc1cccc(Nc2nc(NCC3CCCO3)c3ccccc3n2)c1 (configuration not stated),active: 14.6 µM,
COc1ccc(CC(=O)N(C)Cc2ccc(Cl)cc2)cc1S(=O)(=O)N1CCOCC1,"inconclusive [inhibitor, single point]",
c1ccc(-c2cn(C[C@H]3CC[C@@H]([C@@H]4CC[C@H](Cn5cc(-c6ccccc6)nn5)O4)O3)nn2)cc1,"inconclusive [inhibitor, single point]",
CCOC(=O)c1scc(-c2ccc(C)cc2)c1S(=O)(=O)Nc1cc(OC)ccc1OC,active: 3.66 µM,
CCOc1ccccc1NCc1cc(=O)oc2cc(C)ccc12,"inconclusive [inhibitor, single point]",
CCCCCN(C(=O)CCC(=O)OCc1cccc(F)c1)c1c(N)n(CCCC)c(=O)[nH]c1=O,inactive,
C=CCSc1n[nH]c(-c2cccs2)n1,inactive,
COc1nc(Nc2cccc([N+](=O)[O-])c2)nc(OC)n1,inactive,
O=C(Nc1nccs1)c1cc(-c2ccco2)nc2ccccc12,"inconclusive [inhibitor, single point]",
CCCCN(C)C(=O)c1ccc2c(c1)N(Cc1cccc(F)c1)C(=O)c1ccccc1S2,"inconclusive [inhibitor, single point]",
O=C(Nc1nc(-c2ccc3c(c2)OCCO3)cs1)C1CCCC1,"inconclusive [inhibitor, single point]",
O=C(NC(=S)N1CCN(Cc2ccc3c(c2)OCO3)CC1)c1ccc(Cl)cc1,active: 20.6 µM,
Cc1cc(=O)n2[nH]c(-c3ccc(Cl)cc3)cc2n1,active: 20.6 µM,
O=C(CNc1ccc(F)cc1F)NC(=O)NCc1ccco1,inactive,
CC(CNC(=O)Cn1ccc(NC(=O)OCc2ccccc2)nc1=O)c1ccccc1 (configuration not stated),"inconclusive [inhibitor, single point]",
COc1ccc(CCNC(=O)c2cc3c(=O)n(C)c4ccccc4c3n2C)c(OC)c1,"inconclusive [inhibitor, full curve]",
COc1ccc(C2(C)NC(=O)N(CC(=O)Nc3ccc(Br)c(C)c3)C2=O)cc1OC (configuration not stated),"inconclusive [inhibitor, partial curve]",
Cc1ccc(C(=O)CC(=O)c2ccc(C(C)(C)C)cc2)cc1,"inconclusive [inhibitor, single point]",
O=C(NNC(=O)C1CC1c1ccccc1)c1ccccc1F (configuration not stated),inactive,
Cc1ccc(C)c(OCC(O)CNC2CCCC2)c1 (configuration not stated),"inconclusive [inhibitor, single point]",

SMILES,Potency,"activity change, negative = growth inhibition"
Cc1ccc(-n2c(=O)[nH]c3c(C(N)=O)nc(C(C)C)nc32)cc1,"inconclusive [inhibitor, partial curve]",
CCCCCC(=O)OCc1ccc(C2=CC(=O)CC(C)(C)C2=O)cc1,inactive,
Cn1ncc(Cl)c1C(=O)NCc1ccc2c(c1)OCO2,"inconclusive [inhibitor, partial curve]",
CCOc1ccccc1C(=O)N[C@H](C(=O)OCc1cc(=O)oc2cc(C)ccc12)C(C)C,active: 16.4 µM,
CCN(CC)C1=NC=CC(c2ccccc2)=CC1C (configuration not stated),inactive,
Cc1cccc(N(CC(=O)NCCSCc2ccccc2)S(=O)(=O)c2ccccc2)c1C,"inconclusive [inhibitor, single point]",
COC(=O)C1=CN(c2ccc(F)cc2)C(N)=C(C#N)C1c1cccc(OC)c1OC (configuration not stated),"inconclusive [inhibitor, single point]",
CN(CCc1ccccc1)C(=O)c1ccc(NC(=O)Cc2ccc(NC(=O)C3CCCN(C(=O)c4ccccc4)C3)cc2)cc1 (configuration not stated),"inconclusive [inhibitor, single point]",
O=C1c2ccccc2C(=O)N1CCCC(=O)N1CCCc2ccccc21,"inconclusive [inhibitor, partial curve]",
O=C(N/N=C(\c1ccccc1)c1cccnc1)C(O)(c1ccccc1)c1ccccc1,"inconclusive [inhibitor, single point]",
CC1CN(S(=O)(=O)c2cccc(C(=O)OCC(=O)NCc3ccccc3)c2)CC(C)O1 (configuration not stated),"inconclusive [inhibitor, single point]",
COC(=O)c1c(C)[nH]c(C(=O)C(C)OC(=O)C2CC2)c1C (configuration not stated),"inconclusive [inhibitor, single point]",
O=C(Cn1c(=O)c2cccn2c2ccccc21)NCc1ccccc1F,"inconclusive [inhibitor, partial curve]",
CN1CCC(NC(=O)c2cccc(Oc3ccccc3)c2)CC1,inactive,
O=C(NNC(=O)c1ccccc1O)c1ccc(Cl)c(S(=O)(=O)N2CCc3ccccc32)c1,active: 20.6 µM,
CC1(C)Cc2c(cnn2-c2cccc(F)c2)C(NC(=O)c2ccc[n+]([O-])c2)C1 (configuration not stated),inactive,
CCc1cccc(C)c1NC(=O)C1CCCN1S(=O)(=O)c1cccc2nsnc12 (configuration not stated),"inconclusive [inhibitor, single point]",
CN(C(=O)Cn1nnc(-c2cccnc2)n1)C1CCCCC1,inactive,
O=C(CN1CC(=O)Oc2ccccc21)OCC(=O)c1ccccc1,"inconclusive [inhibitor, partial curve, poor fit]",
COc1ccc(C2=NOC(C(=O)NCCCn3ccnc3)C2)cc1 (configuration not stated),inactive,
COc1ccc(N2CCN(Cc3cc(=O)oc4cc(C)c(Cl)cc34)CC2)cc1,inactive,
O=C(NC(NC(=S)Nc1ccccc1C(=O)O)C(Cl)(Cl)Cl)c1ccccc1 (configuration not stated),inactive,
CCC(C)(C)NC(=O)CN(CC1CCCO1)C(=O)CCC(=O)Nc1nccs1 (configuration not stated),"inconclusive [inhibitor, full curve]",
COc1cccc(N2CCN(C(=O)CCc3nnc4ccc(N5CCCC5)nn34)CC2)c1,"inconclusive [inhibitor, single point]",

SMILES,Potency,"activity change, negative = growth inhibition"
Cc1ccc(C(C(=O)NC2CCCC2)N(Cc2ccc3c(c2)OCO3)C(=O)c2snc(C(N)=O)c2N)cc1 (configuration not stated),inactive,
Cc1nc(NC(=O)c2ccc(OCC(C)C)cc2)sc1Cc1ccc2c(c1)OCO2,active: 16.4 µM,
CCn1c(Oc2ccccc2F)nc2c1c(=O)n(C)c(=O)n2C,"inconclusive [inhibitor, full curve, poor fit]",
CN1CCN(S(=O)(=O)c2cccc(C(=O)Nc3sc4c(c3-c3nc5ccccc5[nH]3)CCCC4)c2)CC1,active: 13 µM,
CCCN(CC(=O)Nc1cc(Cl)ccc1Cl)C(=O)/C=C/c1cc(OC)ccc1OC,"inconclusive [inhibitor, single point]",
CC1CCN(C(=O)COC(=O)CNC(=O)c2ccccc2F)CC1,inactive,
Cc1ccc(Cl)cc1N1CCN(S(=O)(=O)c2c(C)nc3scc(C)n3c2=O)CC1,"inconclusive [inhibitor, single point]",
Cc1ccc(-c2noc(CSc3nnc(-c4ccncc4)n3-c3ccc(C)cc3)n2)cc1,active: 16.4 µM,
O=C1/C(=C/c2cccs2)SC(=S)N1CCC(=O)N1CCCCC1CCO (configuration not stated),"inconclusive [inhibitor, single point]",
CC(=O)Nc1ccc(NC(=O)CSc2ccc(-c3sc(C)nc3C)nn2)cc1,,inconclusive: -20.7% [inhibitor]
O=C(Nc1cccc(Cl)c1)OCCOCCOC(=O)Nc1cccc(Cl)c1,active: 16.4 µM,
O=S(=O)(N1CCCCC1)N1CCCN(S(=O)(=O)N2CCCCC2)CC1,inactive,
CCOc1cc(CNCCO)cc(Br)c1OCc1ccccc1,active: 16.4 µM,
Cc1ccc(C)c(OCCC(=O)Nc2cc(S(=O)(=O)N3CCCCC3)ccc2C)c1,"inconclusive [inhibitor, single point]",
CCCC(=O)N1CCN(c2nc3ccc(F)cc3s2)CC1,active: 11.6 µM,
Cc1cccc(OCCCC(=O)Nc2nccs2)c1C,"inconclusive [inhibitor, single point]",
COc1cc(/C=N/N2CCN(Cc3ccc(Cl)cc3)CC2)cc(Br)c1O,"inconclusive [inhibitor, single point]",
CN1CCCCC1(C)C(=O)NCc1ccc(F)cc1 (configuration not stated),inactive,
Cc1c(C(=O)OCCOc2ccc(Br)cc2)sc(=S)n1C,,inconclusive: -32.2% [inhibitor]
Cc1ccc(S(=O)(=O)N(C)C)cc1NC(=O)c1cc(=O)[nH]c2ccccc12,"inconclusive [inhibitor, partial curve]",
Cc1nc(N2CCCC2)c2c(C(=O)N3CCN(c4cc(Cl)ccc4C)CC3)c(C)oc2n1,active: 18.4 µM,
Cc1ccc(Cl)cc1NC(=O)COC(=O)Cn1cnc2c1c(=O)n(C)c(=O)n2C,,inconclusive: -35.2% [inhibitor]
Cc1ccc(C(=O)c2cn(Cc3ccccc3)c3nc(C)ccc3c2=O)cc1,"inconclusive [inhibitor, single point]",
CC(C)NC(=O)N1CCC2(CC1)CCN(S(C)(=O)=O)CC2,inactive,
